The text below walks through data of paper PMC6368719.

The chains behind the UniProt entries cited, without tags or fusion partners.
UniProt O88427: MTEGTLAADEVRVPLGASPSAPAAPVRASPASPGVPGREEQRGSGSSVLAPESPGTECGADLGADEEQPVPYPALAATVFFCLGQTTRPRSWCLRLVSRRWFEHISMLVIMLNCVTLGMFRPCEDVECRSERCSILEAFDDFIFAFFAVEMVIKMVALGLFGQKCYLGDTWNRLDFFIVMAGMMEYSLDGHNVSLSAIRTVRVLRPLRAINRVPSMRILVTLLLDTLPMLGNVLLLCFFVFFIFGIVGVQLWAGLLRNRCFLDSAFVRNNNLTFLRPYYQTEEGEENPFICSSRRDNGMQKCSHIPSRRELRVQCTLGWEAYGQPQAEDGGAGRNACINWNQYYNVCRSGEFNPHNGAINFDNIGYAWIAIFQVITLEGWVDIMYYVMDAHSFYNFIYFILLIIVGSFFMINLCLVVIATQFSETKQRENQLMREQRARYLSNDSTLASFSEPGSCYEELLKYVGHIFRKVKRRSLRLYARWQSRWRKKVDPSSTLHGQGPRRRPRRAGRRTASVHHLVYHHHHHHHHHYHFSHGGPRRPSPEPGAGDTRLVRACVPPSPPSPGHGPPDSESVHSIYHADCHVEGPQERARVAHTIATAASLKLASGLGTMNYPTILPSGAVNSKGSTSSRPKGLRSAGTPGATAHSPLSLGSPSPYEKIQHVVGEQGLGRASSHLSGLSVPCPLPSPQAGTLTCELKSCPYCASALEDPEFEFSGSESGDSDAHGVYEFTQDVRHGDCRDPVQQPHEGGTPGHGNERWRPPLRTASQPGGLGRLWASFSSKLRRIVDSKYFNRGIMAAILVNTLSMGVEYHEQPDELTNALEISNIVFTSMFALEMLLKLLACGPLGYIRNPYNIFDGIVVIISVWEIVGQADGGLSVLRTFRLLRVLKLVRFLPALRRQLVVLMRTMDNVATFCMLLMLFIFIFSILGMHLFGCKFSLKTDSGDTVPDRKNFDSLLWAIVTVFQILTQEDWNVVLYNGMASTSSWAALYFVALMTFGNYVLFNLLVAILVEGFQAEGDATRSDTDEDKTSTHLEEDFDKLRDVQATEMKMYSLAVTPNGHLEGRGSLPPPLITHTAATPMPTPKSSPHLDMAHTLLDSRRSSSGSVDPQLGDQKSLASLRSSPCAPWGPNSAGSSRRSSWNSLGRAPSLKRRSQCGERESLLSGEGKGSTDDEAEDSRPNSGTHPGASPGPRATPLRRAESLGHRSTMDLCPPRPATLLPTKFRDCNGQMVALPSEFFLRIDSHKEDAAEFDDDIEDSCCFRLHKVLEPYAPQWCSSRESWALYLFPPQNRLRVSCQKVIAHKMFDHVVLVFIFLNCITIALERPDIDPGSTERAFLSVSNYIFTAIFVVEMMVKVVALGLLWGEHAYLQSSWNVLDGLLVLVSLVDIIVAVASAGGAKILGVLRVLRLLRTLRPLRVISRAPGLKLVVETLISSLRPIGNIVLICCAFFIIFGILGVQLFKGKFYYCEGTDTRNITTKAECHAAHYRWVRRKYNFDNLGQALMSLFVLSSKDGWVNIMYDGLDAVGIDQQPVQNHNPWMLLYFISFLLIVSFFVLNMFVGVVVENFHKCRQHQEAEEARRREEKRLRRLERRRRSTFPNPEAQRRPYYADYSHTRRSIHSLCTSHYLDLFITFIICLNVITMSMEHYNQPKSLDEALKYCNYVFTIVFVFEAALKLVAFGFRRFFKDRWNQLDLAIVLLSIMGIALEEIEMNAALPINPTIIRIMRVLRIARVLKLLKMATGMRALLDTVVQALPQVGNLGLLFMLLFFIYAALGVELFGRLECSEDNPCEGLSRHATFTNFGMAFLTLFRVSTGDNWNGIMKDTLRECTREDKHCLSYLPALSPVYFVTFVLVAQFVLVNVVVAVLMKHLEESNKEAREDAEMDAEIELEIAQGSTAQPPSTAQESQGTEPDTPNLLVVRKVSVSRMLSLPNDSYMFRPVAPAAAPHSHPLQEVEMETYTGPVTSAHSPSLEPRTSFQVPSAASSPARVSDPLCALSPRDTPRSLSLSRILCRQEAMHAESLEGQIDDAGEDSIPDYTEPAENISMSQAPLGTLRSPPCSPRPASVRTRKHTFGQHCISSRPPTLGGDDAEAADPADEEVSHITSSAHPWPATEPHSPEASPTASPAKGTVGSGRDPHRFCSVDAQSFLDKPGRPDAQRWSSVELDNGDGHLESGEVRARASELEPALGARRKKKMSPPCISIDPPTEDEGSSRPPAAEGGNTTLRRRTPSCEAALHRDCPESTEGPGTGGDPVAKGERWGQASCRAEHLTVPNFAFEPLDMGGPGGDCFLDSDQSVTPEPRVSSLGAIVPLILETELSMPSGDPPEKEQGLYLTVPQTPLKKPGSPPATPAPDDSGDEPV

Experiment [1] deals with Cav3.2 calcium channel (mouse (endogenous in C57BL/6 tissue)) (UniProt O88427). Kind of experiment: co-IP; Cav3.2 immunoprecipitated with a polyclonal anti-Cav3.2 antibody from mouse lumbar DRG lysate (modified RIPA buffer, overnight at 4 °C); western blot for ENaC subunits.
The target is the same in experiment [2]. Kind of experiment: co-IP; Cav3.2 immunoprecipitated with a polyclonal anti-Cav3.2 antibody from mouse whole brain lysate; western blot for ENaC subunits. A general note: A western blot detects proteins with antibodies after separation by electrophoresis.
For experiment [3] the target is unchanged. Kind of experiment: co-IP; Cav3.2 immunoprecipitated with a polyclonal anti-Cav3.2 antibody from mouse dorsal horn lysate (modified RIPA buffer, overnight at 4 °C); western blot for ENaC subunits.
The target of experiment [4] is Cav3.2 calcium channel (endogenous in CAD cells) (mouse (endogenous in CAD)) (UniProt O88427). Kind of experiment: co-IP; Cav3.2 immunoprecipitated from cells transfected with WT or mutant β-ENaC (CAD cells by the text, tsA201 by the legend); western blot for β-ENaC, densitometry.

No constants are given. Whether binding was seen depends on the method and setting. In cells and extracts the contact can be indirect. Some results given as binding are weak or reduced against the parent protein; the word gives no strength. For some assays here: Sequences can lack the tags named with a protein.

B1: γ-ENaC subunit (protein, UniProt Q9WU39 1-655)
chain: MAPGEKIKAKIKKNLPVRGPQAPTIKDLMHWYCLNTNTHGCRRIVVSRGRLRRLLWIAFTLTAVALIIWQCALLVFSFYTVSVSIKVHFQKLDFPAVTICNINPYKYSAVSDLLTDLDSETKQALLSLYGVKDVLDSTPRKRREAGSMRSTWEGTPPRFLNLIPLLVFNENEKGKARDFFTGRKRKISGKIIHKASNVMHVHESKKLVGFQLCSNDTSDCATYTFSSGINAIQEWYKLHYMNIMAQVPLEKKINMSYSAEELLVTCFFDGMSCDARNFTLFHHPMYGNCYTFNNRENATILSTSMGGSEYGLQVILYINEDEYNPFLVSSTGAKVLVHQQNEYPFIEDVGTEIETAMSTSIGMHLTESFKLSEPYSQCTEDGSDVPVTNIYNAAYSLQICLYSCFQTKMVEKCGCAQYSQPLPPAANYCNYQQHPNWMYCYYQLYQAFVREELGCQSVCKQSCSFKEWTLTTSLAQWPSEASEKWLLNVLTWDQSQQINKKLNKTDLAKLLIFYKDLNQRSIMESPANSIEMLLSNFGGQLGLWMSCSVVCVIEIIEVFFIDFFSIIARRQWQKAKDWWARRRTPPSTETPSSQQGQDNPALDTDDDLPTFTSAMRLPPAPEAPVPGTPPPRYNTLRLDSAFSSQLTDTQLTNEF
On to B1, for which the binding entry in experiment [1], in experiment [2] and in experiment [3] was “binds” in each case.

B2: α-ENaC subunit (protein, UniProt Q61180 1-699)
chain: MLDHTRAPELNLDLDLDVSNSPKGSMKGNNFKEQDLCPPLPMQGLGKGDKREEQALGPEPSEPRQPTEEEEALIEFHRSYRELFQFFCNNTTIHGAIRLVCSKHNRMKTAFWAVLWLCTFGMMYWQFALLFEEYFSYPVSLNINLNSDKLVFPAVTVCTLNPYRYTEIKEDLEELDRITEQTLFDLYKYNSSYTRQAGGRRRSTRDLRGALPHPLQRLRTPPPPNPARSARSASSSVRDNNPQVDRKDWKIGFQLCNQNKSDCFYQTYSSGVDAVREWYRFHYINILSRLPDTSPALEEEALGSFIFTCRFNQAPCNQANYSQFHHPMYGNCYTFNNKNNSNLWMSSMPGVNNGLSLTLRTEQNDFIPLLSTVTGARVMVHGQDEPAFMDDGGFNVRPGVETSISMRKEALDSLGGNYGDCTENGSDVPVKNLYPSKYTQQVCIHSCFQENMIKKCGCAYIFYPKPKGVEFCDYLKQSSWGYCYYKLQAAFSLDSLGCFSKCRKPCSVTNYKLSAGYSRWPSVKSQDWIFEMLSLQNNYTINNKRNGVAKLNIFFKELNYKTNSESPSVTMVSLLSNLGSQWSLWFGSSVLSVVEMAELIFDLLVITLIMLLHRFRSRYWSPGRGARGAREVASTPASSFPSRFCPHPTSPPPSLPQQGTTPPLALTAPPPAYATLGPSASPLDSAVPGSSACAPAMAL
For the molecule B2, the binding result in experiment [2] is reported as “no binding”.

B3: WT β-ENaC subunit (rat, HA-NT) (protein, UniProt P37090 1-638)
chain: MPVKKYLLKCLHRLQKGPGYTYKELLVWYCNNTNTHGPKRIICEGPKKKAMWFLLTLLFACLVCWQWGVFIQTYLSWEVSVSLSMGFKTMNFPAVTVCNSSPFQYSKVKHLLKDLYKLMEAVLDKILAPKSSHTNTTSTLNFTIWNHTPLVLIDERNPDHPVVLNLFGDSHNSSNPAPGSTCNAQGCKVAMRLCSANGTVCTFRNFTSATQAVTEWYILQATNIFSQVLPQDLVGMGYAPDRIILACLFGTEPCSHRNFTPIFYPDYGNCYIFNWGMTEKALPSANPGTEFGLKLILDIGQEDYVPFLASTAGARLMLHEQRTYPFIREEGIYAMAGTETSIGVLLDKLQGKGEPYSPCTMNGSDVAIQNLYSDYNTTYSIQACLHSCFQDHMIHNCSCGHYLYPLPAGEKYCNNRDFPDWAYCYLSLQMSVVQRETCLSMCKESCNDTQYKMTISMADWPSEASEDWILHVLSQERDQSSNITLSRKGIVKLNIYFQEFNYRTIEESPANNIVWLLSNLGGQFGFWMGGSVLCLIEFGEIIIDFIWITVIKLVASCKGLRRRRPQAPYTGPPPTVAELVEAHTNFGFQPDTTSCRPNAEVYPDQQTLPIPGTPPPNYDSLRLQPLDTMESDSEVEAI
For the molecule B3, the binding result in experiment [4] is on record as “binds”.

B4: β-ENaC subunit (protein, UniProt Q9WU38 1-638)
chain: MPVKKYLLKCLHRLQKGPGYTYKELLVWYCNNTNTHGPKRIICEGPKKKAMWFLLTLLFACLVCWQWGVFIQTYLSWEVSVSLSMGFKTMNFPAVTVCNSSPFQYSKVKHLLKDLDELMEAVLEKILAPEASHSNTTRTLNFTIWNHTPLVLIDERNPDHPVVLNLFGDSHNSSNPAPGSTCNAQGCKVAMRLCSANGTVCTLRNFTSATQAVTEWYILQATNIFSQVLPQDLVGMGYAPDRIILACLFGTEPCSHRNFTPIFYPDYGNCYIFNWGMTEETLPSANPGTEFGLKLILDIGQEDYVPFLASTAGARLMLHEQRTYPFIREEGIYAMAGTETSIGVLVDKLQRKGEPYSPCTMNGSDVAIKNLYSVYNTTYSIQACLHSCFQDHMIRNCSCGHYLYPLPEGEKYCNNRDFPDWAYCYLNLQMSVTQRETCLSMCKESCNDTQYKMTISMADWPSEASEDWILHVLSQERDQSSNITLSRKGIVKLNIYFQEFNYRTIEESPANNIVWLLSNLGGQFGFWMGGSVLCLIEFGEIIIDFIWITIIKLVASCKGLRRRRPQAPYTGPPPTVAELVEAHTNFGFQPDTTSCRPHGEVYPDQQTLPIPGTPPPNYDSLRLQPLDTMESDSEVEAI
On to B4, for which the binding result in experiment [1], in experiment [2] and in experiment [3] was “binds” throughout.
